The structures appear in SMILES notation. Whole data set: some 110,000 compounds, median “z-score” near -0.1, cut for the highest 2% near 2. Some of the results follow.

This test addresses Metabotropic glutamate receptor 8 (Rattus norvegicus) (UniProt P70579). Briefly: mGluR8 Gi/Go-coupled signaling modulation – cell-based, rat, thallium flux, HTS, primary screen (AID 488969). Conditions: HEK293 rat mGluR8, GIRK (G protein-gated inwardly rectifying potassium channel) thallium flux, FluoZin2; at 10 µM; stronger effect = higher value; submaximal glutamate (EC20) added with thallium.
UniProt P70579, sequence (P70579 whole entry, looked up): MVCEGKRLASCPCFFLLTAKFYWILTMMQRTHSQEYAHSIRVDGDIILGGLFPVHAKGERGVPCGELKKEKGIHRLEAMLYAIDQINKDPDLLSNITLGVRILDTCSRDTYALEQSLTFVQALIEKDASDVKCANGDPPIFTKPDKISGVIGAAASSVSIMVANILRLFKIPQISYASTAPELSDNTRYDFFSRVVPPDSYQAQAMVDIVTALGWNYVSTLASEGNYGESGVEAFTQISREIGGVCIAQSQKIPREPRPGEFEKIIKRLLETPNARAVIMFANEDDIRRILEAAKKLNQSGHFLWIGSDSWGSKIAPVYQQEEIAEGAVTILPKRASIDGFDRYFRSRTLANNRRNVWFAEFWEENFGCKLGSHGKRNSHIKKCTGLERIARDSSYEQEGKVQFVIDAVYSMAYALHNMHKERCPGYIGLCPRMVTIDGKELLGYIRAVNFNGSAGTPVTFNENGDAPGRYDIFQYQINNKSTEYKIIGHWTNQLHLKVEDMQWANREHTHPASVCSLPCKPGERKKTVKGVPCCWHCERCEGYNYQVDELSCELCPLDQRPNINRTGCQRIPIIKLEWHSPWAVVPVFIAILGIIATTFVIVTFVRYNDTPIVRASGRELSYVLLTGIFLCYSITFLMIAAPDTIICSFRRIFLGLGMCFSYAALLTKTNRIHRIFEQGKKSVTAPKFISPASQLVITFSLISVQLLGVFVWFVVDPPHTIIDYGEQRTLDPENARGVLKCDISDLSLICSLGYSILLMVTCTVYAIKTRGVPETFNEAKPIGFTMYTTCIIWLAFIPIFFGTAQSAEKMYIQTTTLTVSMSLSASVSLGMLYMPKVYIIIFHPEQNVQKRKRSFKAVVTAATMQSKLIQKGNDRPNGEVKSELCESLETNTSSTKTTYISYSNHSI
For the compound `CCN(CC)c1ccc(/C=C(\C#N)C(=O)NCc2ccco2)cc1`, the z-score was -0.684.

As to `COc1ccc(-c2cc(-c3ccccc3)n3ncnc3n2)cc1`, the z-score was -0.512.

Compound `CCn1c(CSc2nc3ccccc3s2)nnc1SCC(=O)c1ccc(Cl)cc1` gave a z-score of -0.409.

The compound `Cc1nc(SCC(=O)N2CC(=O)Nc3ccccc32)c2c(C)c(C)sc2n1` showed a z-score of -0.286. Regarding `Cc1ccc(-n2nc(C)c(NC(=O)CCl)c2C)cc1`, the z-score was 0.146.

Compound `CCn1c(SCC(=O)c2cc(OC)ccc2OC)nnc1-c1ccncc1` had a z-score of -0.497. `CC(=O)c1ccc(N2CCN(CCC#N)CC2)c(F)c1` had a z-score of -0.104. The result for `CCn1ncc(C2=NOC(C(=O)Nc3c(C)nn(Cc4ccc(F)cc4)c3C)C2)c1C` (stereo unspecified) reads -0.475; that for `COc1ccc(OC)c(C2/C(=C(/O)c3ccc(C)cc3)C(=O)C(=O)N2Cc2ccco2)c1` (stereo unspecified), -0.543. The result for `CCOC(=O)N1CCN(c2c(NCCCN3CCCC(C)C3)c(=O)c2=O)CC1` (stereo unspecified) reads -0.0555; that for `Cc1ccc2cc(C=C(C#N)C#N)c(N3CCCCC3)nc2c1`, -0.315. To `Fc1ccc(-c2nnc(-c3ccc(Cl)cc3Cl)o2)cc1` belongs 1.19. As for `Cc1cccn2c(=O)c3cc(C#N)c(=N)n(CCCN4CCOCC4)c3nc12`, the z-score was 0.139. `COCCNC(=O)CN(c1ccccc1OC)S(C)(=O)=O` came in with a z-score of -0.687. The result for `CCS(=O)(=O)N1CCC(C(=O)NC2CCCCC2)CC1` reads 0.0354; that for `O=S(=O)(NCCSc1ccccc1)c1ccc2c(c1)OCCO2`, -0.0362. The result for `CC(C)(C)SCCNC(=O)CN1C(=O)c2ccccc2S1(=O)=O` reads 0.561. To `S=C(NCCc1ccc(Cl)cc1)Nc1ccc(Cl)cc1Cl` belongs 1.69; to `O=CNCC(=O)NCCc1ccc(Cl)cc1`, -0.44. Take `Cc1ccc(-c2ccc(CCC(=O)O)n2NC(=O)c2ccco2)cc1`: the z-score worked out at 0.745. In the case of `CCOC(=O)Cc1csc(NC(=O)c2ccc(OC)c(OC)c2)n1`, the z-score came to 0.0105.

Regarding `O=C1CCCC(=O)N1c1ccc(N2CCN(c3ccc([N+](=O)[O-])cc3)CC2)c([N+](=O)[O-])c1`, the z-score was -0.189. To `CCCN1C(=O)S/C(=C\c2ccc(N3CCOCC3)cc2C)C1=O` belongs 0.0877. With `CCCOC(=O)CSc1nc(N)c(C#N)c(-c2ccco2)c1C#N`, the z-score is -0.213. To `O=C(COc1ccccc1)N(Cc1ccco1)C1CCS(=O)(=O)C1` (stereo unspecified) belongs 0.0735; to `CCOC(=O)N1CCN(C(=O)Cn2ncn3nc(-c4cccs4)cc3c2=O)CC1`, 0.33; to `Cc1nc(-c2ccccc2)cc(N2CCCC2)n1`, -0.306.

`O=C(CN(C(=O)CCC(=O)Nc1nccs1)c1cccc(F)c1)NCC1CCCO1` (stereo unspecified) showed a z-score of 0.359. On to `CCc1nc2sc(C#N)c(N)c2c2c1CCCC2`, for which the z-score is -0.0957. The result for `Cc1ccc(C(=O)O)cc1-c1ccc(/C=C2/NC(=O)N(c3ccccc3)C2=O)o1` reads 0.164. To `COc1ccc(-c2cc3nc(C)cc(C)n3n2)cc1` belongs 0.202.

The record behind these values is PubChem BioAssay AID488969 (Vanderbilt High Throughput Screening Facility, 2010).
